The text below walks through data of the RNAGym collection of RNA variant scans (doi:10.7554/elife.90254).

B1: LINE1-mini (parent)
chain: GGCAGAGCUCAACACAGCGUGGCAAAGUGGCUGUGGCUAGACUGCC

The source gives no read counts; variants with many changes may rest on few reads.

In this data set the parent is B1. In words: self-cleavage, relative activity (ratio to wild type); higher = more cleavage; in vitro, sequencing; the parent is a self-cleaving ribozyme.
As for C3G A11C C13A C18U U32A G36A, the self-cleavage was 0.03.
Under C3U A4G C8A G44A C46U stands 0.42; under C3G C10G U34A, 0.03.
For C3G A11C C42G G44C C46U the value was 0.01; for C3G U38G G40U C46U, 0.13; for C3G C10A A11G G17U G33U C46A, 0.01.
For C3U C10A A26G G27A U28C the value was 0; for C3G C10A C18A C42U, 0.01; for C3G G7A U20A, 0.38.
For the variant C3G G21C A26U A39U, the self-cleavage turned out to be 0.07.
For C3G G17A U43A G44C the value was 0.04.
Under C3U A26G G27A stands 1.12; under C3G G21U C46A, 0.11; under C3U A6G G29C G30A A39G, 0.07.
Under C3G A14C A25U C46G stands 0.01; under C3G G21U U32C, 0.02.
Consider C3U A16C C42A, for which the self-cleavage turned out to be 0.08.
For C3U C8U C15A G21C G22U A26G A39C the value was 0.03; for C3U A4G A6U U9G C45A, 0.17; for C3G A11G G36U C42U, 0.
C3G A12U C13U U20A: the self-cleavage stood at 0.05.
Under C3G C13A G21U A26U stands 1.56.
Regarding C3U A14G U20C G22A A39U, the self-cleavage stood at 0.18.
Under C3G G5A A6C C10U A25C G35C G36U G40C C45U stands 0; under C3U A16G G30A, 0.01; under C3G G17U U20A G22A, 0.02.
Consider C3G C10A G44C C45U, for which the self-cleavage was determined as 0.03.
Under C3G G21A G36U stands 0.88; under C3G C18G C45G C46G, 0.06; under C3U C10A C18A A24G A41U C45A, 0.02.
For C3G G22A G29U the value was 0.23; for C3G U28G A41C C42A, 0.06; for C3U A4U G5A, 0.09.
For C3U C8U C23U C46G the value was 0.62; for C3G C18A G33U C37A C46U, 0.04; for C3U A12C C13A C42A, 0.11.
For the variant C3G G7U G36A, the self-cleavage came out at 0.84.
As for C3U A4C U28C U32G, the self-cleavage turned out to be 0.15.
For the variant C3G G5U A14G, the self-cleavage came out at 0.09.
Under C3U A24C C37A stands 0.16; under C3G A16C G19U A26U, 0.03.
As to C3G A6C G17C G19C A24C A26U, the self-cleavage was 0.12.
Turning to C3U A6U G7U A16C G21A, the self-cleavage turned out to be 0.04.
In the case of C3G C10A C42U, the self-cleavage turned out to be 0.01.
Under C3G G22U C23A A24G U28C stands 0.06; under C3U A25C C31G G33C U34C, 0.06.
As for C3G U34C A39G, the self-cleavage came to 0.19.
In the case of C3G A11U A16G, the self-cleavage was 0.04.
For C3G C18A G29U G36U the value was 0.02.
Under C3G A16G A24C stands 0.03; under C3G U9C A41C, 0.03; under C3G G19A G22A A24U C31G, 0.15.
Take C3G A6U A12G U28C: the self-cleavage stood at 1.26.
Under C3U A6U G7A C46U stands 0.12; under C3G A14C C45G, 0.07; under C3U A4U G17C C46U, 0.01.
Under C3G A6G A12G C13A A41G stands 0.01; under C3U A6U G7A C37U G40U C45A, 0.07; under C3U A41U U43A, 0.09.
Under C3U C8U A12G C45A stands 0.12.
Regarding C3G G5U C15U A16U U20G A39C, the self-cleavage stood at 0.07.
For C3U C8A G17C the value was 0.14; for C3U C8U C13G, 0.19; for C3U A16U C18G G40A, 0.02.
For C3U A6C G29C the value was 0.19.
Under C3G G17U G21A A41G stands 0.29.
Take C3G G5A G7U C45U: the self-cleavage was found to be 0.32.
In the case of C3G C8G G22A C45A, the self-cleavage stood at 0.01.
Under C3G G19A G35U stands 0.14; under C3G A26U G40C G44U, 0.34; under C3G C10U A14U G30U C46U, 0.08.
Under C3U C8A C15U C18A G33C U43C stands 0.17; under C3U A6U A25G, 0.53; under C3G G22C A39U, 0.08.
Under C3G G29U G30A U38C U43A stands 0.1; under C3G C8A U43G, 0.22; under C3G G17C U32C C37U G40U, 0.03.
On to C3U C8G C15A C23U, for which the self-cleavage is 0.31.
For C3G A6C G7C C8A G33U G35A the value was 0.09; for C3G G7A G29C, 0.12; for C3U A16U C46A, 0.07.
For C3U C10A G21U the value was 0.01; for C3G C15A U20C U43C, 0.03.
Turning to C3G G17A A24G G35A, the self-cleavage came to 0.05.
For C3U A4C U32G the value was 0.05.
With C3U A4G G5A G35U G40C, the self-cleavage was found to be 0.04.
Under C3G C13U U20C G29C stands 0.08.
C3U A4U G27A G29A C31A U32A U43A: the self-cleavage amounted to 0.04.
Under C3U A14C C15G G40C C42U stands 0.02; under C3G A4U G22U G33U, 0.12.
Under C3G G5C A26C stands 0.07; under C3G G5U G29U C46G, 0.21.
For C3G G5U G17A the value was 0.02; for C3G C10A G33A U34C, 0.07.
For the variant C3G G7A G22U A24C G29U, the self-cleavage came out at 0.18.
For C3G C10G G21C C23U the value was 0.04; for C3U A4U U34C, 0.12.
For C3G G5U U9G the value was 0.52; for C3G G19U U20G G22A C23A C31A C42U, 0.09; for C3G A14U A25C G33U, 0.03.
As for C3G G7A A39G, the self-cleavage came to 0.05.
For C3G A26U G35U C45U the value was 0.16.
Consider C3U C10A G22C G44U, for which the self-cleavage amounted to 0.03.
For C3G C18A G21U C46A the value was 0.08.
Turning to C3G U9C C37U, the self-cleavage amounted to 0.02.
C3U C10A C15G C23U U34C G35A A41C: the self-cleavage was determined as 0.
For C3G C15U U38C C46U the value was 0.05; for C3G C37G C42U, 0; for C3G G17C C31A C37A U38G G44A, 0.02.
For C3G G30A C37U U38C the value was 0.01; for C3G U9A G36U C42A, 0.16; for C3G G27C A41C C45A, 0.03.
On to C3G C15G G22U G30U C31U C45A C46U, for which the self-cleavage was determined as 0.04.
For C3G A12U A24G C31U the value was 0.01.
Under C3G G5U C10A G21A C23U C31U stands 0.03; under C3G A6C C10A G21A U28A G35U C42A, 0.01.
On to C3U C10A A11G A24G G33A, for which the self-cleavage came to 0.01.
Under C3G A24C U38G stands 0.04.
Under C3G C8G A14C G29U C37U stands 0.02; under C3G A11G G17A C46A, 0.03.
Under C3G G27A A39U stands 0.58; under C3G C8A G21A C23A G30A G33U A39U G40U, 0.16.
For the variant C3G G5U C10A G21U A25C U43G G44A, the self-cleavage is 0.
As to C3G G7U C8A C15U, the self-cleavage is 0.79.
On to C3G A14U A16C, for which the self-cleavage is 0.14.
For C3G G7U G29C C31A U34C the value was 0.06; for C3G G22C A39G U43G, 0.06; for C3G G17A C42A, 0.07.
Turning to C3U A12U C23G U43A G44C, the self-cleavage was 0.09.
Under C3U A6C C8G U28C U32C U38C stands 0.01; under C3G G17A C37A A39G C45G, 0.04; under C3U A25U U28G, 0.14.
For C3G A11G C18A C31G G33A U43G G44U the value was 0; for C3G U9G G17U U20C C23G, 0.09.
For C3G C10U A16C the value was 0.03; for C3G C13U U32C A39C G40U G44C, 0.06; for C3G C15G G33A G36U, 0.02.
C3U A11C U20C U43C: the self-cleavage came out at 0.01.
With C3G G5C A6C C18G, the self-cleavage was 0.14.
Under C3U C10A C15U U28G stands 0.05.
As for C3G C8G A26C C31A, the self-cleavage was determined as 0.01.
In the case of C3U A11U C15G C23A A26C, the self-cleavage was determined as 0.01.
For C3U A4U A26U G29A the value was 0.13.
For C3G C8G A11C C31A G40A the value was 0; for C3G C18A C46U, 0.08.
Under C3G C8U G30U C31U C37G C46U stands 0.13; under C3U A11C C23G A41C, 0.01.
Regarding C3U A16U G33U, the self-cleavage turned out to be 0.08.
For C3G G19U G30C A41U the value was 0.02.
Under C3G G21C U32G stands 0.06.
For C3G C10U G21C G30U the value was 0.05; for C3G G22U G33A, 0.1.
Take C3G G36A U43A: the self-cleavage turned out to be 0.23.
Consider C3G C13A U38C, for which the self-cleavage worked out at 0.11.
Under C3G A25U G35U stands 0.62.
Under C3U A4U G19C U34C C37U U38G stands 0.02.
As to C3G G5A G19U, the self-cleavage worked out at 0.2.
Under C3U A16U A24U C31G U32G stands 0.02; under C3G G22A A41U, 0.22.
For C3G G19U A26G, the self-cleavage came out at 0.1.
Under C3G U38G G40U stands 0.05; under C3U A24G A26U, 0.45.
Under C3U C10A A24C stands 0.02; under C3G C8A C15G G22U, 1.2.
For C3G C10A U28C the value was 0.11; for C3G A11C A16C C23A A26U, 0.01; for C3G G7U U32C U34G, 0.06.
